# Experimental data from the supplement of paper PMC3334620.
# Over roughly 33,000 sequences, “E-score (-0.5 to 0.5)” has its median near -0.054; the highest 2% begin near 0.39. The list shows a part of the results.
# Target: Ylr278c (UniProt Q05854)
# Assay: PBM E-score (8-mer binding enrichment) (E-score (-0.5 to 0.5)); higher = stronger / more preferred TF binding; most listed sequences are background and not binding sites
# Details: protein concentration: 200 nM; construct: GST-DNA-binding domain
# How it was run: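 Universal all-10-mer Agilent arrays, double-stranded by primer extension on fresh or once-stripped slides, were probed with about 100-200 nM GST-tagged yeast transcription factors made by PURExpress. Fluorescent anti-GST detected bound protein, and masliner normalised the scans. E-scores from the Universal PBM Analysis Suite were given to each ungapped eight-base word pooled with its reverse complement.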
row,Sequence,PBM E-score
1,ATTCTAGC,-0.166
2,TCAAAGAA,-0.237
3,GTGGGTTA,-0.177
4,AGGCTCAC,-0.223
5,CTTCGGAA,0.419
6,GACCCCCC,-0.149
7,ATACTTCG,0.0835
8,AGCATTTC,0.0338
9,CACTTAAA,-0.114
10,TAAAAGCA,-0.00627
11,AGAATAAT,-0.142
12,TCTTGGAA,-0.141
13,AGGCCACC,-0.0852
14,AAGCGCCG,0.339
15,CCAACAAC,-0.112
16,GATCTTGA,-0.123
17,GGACGAAA,0.15
18,AAAGTTGA,-0.169
19,CCTCTACA,-0.252
20,ATGTTTGG,-0.0185
21,CAGTGTAC,-0.128
22,TAACAATA,-0.0523
23,CACAACTA,0.0612
24,ATGGTTGA,-0.0616
25,ACGGCCAC,0.138

row,Sequence,PBM E-score
1,CGCGTGGC,-0.00486
2,AATTCAGG,0.127
3,CTCACAAA,-0.0131
4,AATCAATG,0.00091
5,GGTGCTAA,0.0327
6,GTGTGAGA,-0.0203
7,AATCTACG,0.0338
8,AATGTTAG,-0.144
9,CACAAGCG,-0.124
10,GCTCCTGA,0.15
11,GAGAGAAC,-0.101
12,ACTGGAAT,-0.075
13,CGCAGGGC,0.049
14,CGGTTGCC,0.109
15,CGGAATAG,0.391
16,TATCTTCA,-0.0825
17,CGCACCCC,0.179
18,TTAGCCAA,-0.161
19,TAACAGAA,-0.173
20,CGTAACGA,-0.128
21,CGTTCGCA,-0.18
22,CCGGGTAG,0.181
23,ACTGCGGC,0.126
24,GCTGGGAA,0.0943
25,ATCTCTCA,-0.0439

row,Sequence,PBM E-score
1,TAAGTGTA,-0.263
2,CCTTTATC,0.00066
3,CTCCCAGC,-0.0468
4,TAAGGATA,-0.0608
5,ATTATTCA,-0.0367
6,CATTTTGA,-0.194
7,CGACCCCG,0.247
8,CGCTTAAA,0.00357
9,AGACTACG,-0.144
10,GAGGCTCA,-0.184
11,GCATACAC,-0.122
12,AAATATAG,-0.0575
13,CGAGTCTC,-0.0925
14,CGACCTAA,0.0918
15,GTTTATAA,0.168
16,ACCCGTGC,-0.0704
17,CAAGATTG,-0.151
18,CCTGCAGG,-0.0589
19,CATAGTCA,-0.287
20,AGAAGAGG,-0.194
21,ATAACTAC,0.0549
22,CACCCCTC,-0.0449
23,GCCACCGC,0.0893
24,ATCGGTTA,0.186
25,GAAGAAAA,0.0735

row,Sequence,PBM E-score
1,CTTTATTC,-0.00152
2,CCCTGGCC,-0.183
3,CATAGGAC,-0.146
4,CAGAACGA,-0.257
5,AGATCGCC,-0.00696
6,AGAAACCA,-0.169
7,GGGGAAAA,0.132
8,ATCCTAGC,-0.285
9,GTTCTACA,-0.219
10,CGGCTGCA,0.117
11,CCCATACA,-0.259
12,ACCTAAAC,0.0245
13,ATGCCTGG,-0.228
14,GCTACGTA,-0.158
15,ACTTGCAT,-0.0159
16,ATTGCAGC,-0.0318
17,ACAGCGGG,0.136
18,AGAGTGTG,-0.174
19,ACAGTTAG,-0.0328
20,ACACATAG,-0.262
21,GACTCGTA,-0.143
22,CACTATGG,-0.262
23,CTTTACGC,-0.177
24,CAATCCAG,-0.0415
25,CAAAGCGG,0.175

row,Sequence,PBM E-score
1,AGCGTCAT,-0.14
2,TCTGACAA,-0.223
3,CCGTTCCA,0.0158
4,CGCAACTA,0.127
5,AGCTATTA,-0.129
6,GAGCCTAA,-0.0125
7,ATAATTCA,-0.0473
8,GAAGGCGC,-0.0379
9,CGTTAACG,0.00213
10,CAAGAACC,-0.0423
11,TGCCGTAA,-0.0603
12,AAAGACCG,0.277
13,GAAACTGA,-0.0747
14,CCGACCTA,0.192
15,GCACTCCC,0.0431
16,ATCGAGAT,-0.242
17,CGCCTTGA,-0.0423
18,TCGGTCAA,0.0369
19,CGTCGCTA,-0.0837
20,ACATAAGT,-0.156
21,GATTAAGC,0.229
22,AAACTTCA,-0.0425
23,CTCCCCGA,0.268
24,CAAATCTG,-0.287
25,AATTTAGC,0.0413

row,Sequence,PBM E-score
1,ACGCGACG,0.0101
2,CACTACAA,-0.0272
3,AAAGTTCT,0.0288
4,ACGGCGAT,0.197
5,GGGGCACC,0.0504
6,ATACAATG,-0.0989
7,AATGGGAA,-0.223
8,AACATGGC,-0.171
9,CGGTGAAA,0.36
10,AAGAAGAT,0.078
11,AAAGTAAA,-0.0568
12,ATGAGTAA,-0.185
13,AGAAAGTG,-0.0436
14,ATTGCATC,-0.105
15,CTTTTCCC,0.033
16,ATCACAAC,-0.063
17,TCTGCAAA,-0.166
18,AGCGCCGA,0.291
19,AGAGCCTA,-0.155
20,GTACATAC,-0.012
21,GCAATAGA,-0.147
22,AACACGTT,-0.103
23,CTCCTTTA,-0.132
24,AAGAAATA,-0.202
25,ATGCTATA,-0.309

row,Sequence,PBM E-score
1,GCTCCACA,-0.178
2,GAAAAAGC,0.134
3,ACGAAAAG,-0.0347
4,CAACTGAC,-0.106
5,CTAGTGAG,-0.105
6,CTTAACTA,-0.204
7,ATCTTAAG,-0.146
8,CGTCTGAC,-0.0584
9,CAGGTGGA,-0.218
10,TGTAACAA,-0.203
11,ATCAGAAA,-0.145
12,AACGCCCC,0.169
13,ATTCTCAG,-0.218
14,AATAGGGC,0.0122
15,ACTTTCAT,-0.16
16,AAAGGCAT,-0.132
17,AGCTGAGC,-0.145
18,CTGCGATC,-0.0009
19,GGAGGCGA,0.0526
20,AATCCTTG,0.0744
21,TCGCCAAA,-0.184
22,ATTTGCTG,-0.0877
